# Test results reported in article PMC6919601, “Identification of Plasmodium dipeptidyl aminopeptidase allosteric inhibitors by high throughput screening” (PLoS ONE, 2019).
# About 230 (0.21%) of roughly 110,000 compounds showed an effect of 50% or more. The list shows a part of the results.
# Biological target: DPAP1 (Plasmodium falciparum, UniProt Q8IIJ9)
# Assay: primary screen, percent inhibition; read by cleavage of a fluorogenic dipeptide substrate; higher = more effect of the substance
# Set-up: species or system P. falciparum D10 trophozoite lysates; single well
# 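Note: 30 min substrate incubation versus DMSO and 10 µM JCP410 controls.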
# DPAP1, sequence (Q8IIJ9 whole entry, looked up): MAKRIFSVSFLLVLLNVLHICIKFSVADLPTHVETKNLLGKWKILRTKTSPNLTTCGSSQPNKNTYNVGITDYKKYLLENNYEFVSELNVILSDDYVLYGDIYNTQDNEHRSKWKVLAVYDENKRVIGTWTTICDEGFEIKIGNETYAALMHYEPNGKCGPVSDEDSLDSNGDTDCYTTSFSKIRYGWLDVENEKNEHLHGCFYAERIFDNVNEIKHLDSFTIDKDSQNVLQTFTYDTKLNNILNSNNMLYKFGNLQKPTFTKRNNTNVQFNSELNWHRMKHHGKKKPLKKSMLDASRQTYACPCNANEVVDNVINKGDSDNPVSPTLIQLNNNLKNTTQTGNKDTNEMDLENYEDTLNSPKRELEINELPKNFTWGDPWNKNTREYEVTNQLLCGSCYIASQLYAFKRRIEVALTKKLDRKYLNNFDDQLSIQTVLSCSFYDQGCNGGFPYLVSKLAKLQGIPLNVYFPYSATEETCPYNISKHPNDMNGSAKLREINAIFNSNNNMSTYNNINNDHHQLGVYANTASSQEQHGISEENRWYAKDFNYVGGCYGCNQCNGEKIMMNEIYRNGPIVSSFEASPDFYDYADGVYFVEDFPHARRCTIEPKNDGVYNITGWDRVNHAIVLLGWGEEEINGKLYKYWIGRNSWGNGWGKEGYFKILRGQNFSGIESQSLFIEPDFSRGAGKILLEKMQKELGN
row,Compound,% Inhibition @ 10 uM [%]
1,C=CCn1c(SCC(=O)Nc2ccc(OCC)cc2)nc2sc(C)c(C)c2c1=O,1.02
2,CCOC(=O)c1[nH]c(C)c(C(=O)N(CC)CC)c1C,-1.66
3,Cc1nn(C)cc1CNC(=O)COc1ccc(Cl)cc1Cl,-5.81
4,Cc1ccc(S(=O)(=O)N2CC=C(C(=O)NCCC(C)C)CC2)cc1,-2.14
5,CC(=O)C1=C(C)NC(SCC(=O)Nc2ccc(C(=O)O)cc2)=C(C#N)C1c1ccc(Cl)cc1 (stereo not shown),2.38
6,Cc1[nH]nc(O)c1C(c1c(O)n[nH]c1C)c1c[nH]c2ccccc12,-6.24
7,CN1CCC(N2CCN(c3ccc(Cl)cc3)CC2)CC1,-2.21
8,Cc1noc(C)c1S(=O)(=O)N1CCC(C(=O)NCc2ccccc2)CC1,-4.5
9,CCO/C(O)=C1/C(C)=NC2=C(C(=O)CC(c3ccccc3)C2)C1c1ccncc1 (stereo not shown),-5.62
10,COC(=O)c1ccc(C(F)(F)F)cc1O,-0.268
11,COCCNC(=O)c1c(C)oc2ncn(C)c(=O)c12,-5.76
12,O=c1ccc(=O)n(-c2ccc(Br)cc2)[nH]1,-0.807
13,COCc1cc(C)nc(SCC(=O)Nc2nc(-c3ccc(C)cc3)cs2)c1C#N,-1.38
14,CCCc1nn(-c2ccc(F)cc2)c(O)c1/C=N/CCc1ccc(Cl)cc1,-0.25
15,CCOc1cc(CN(C)CCN(C)C)ccc1O,-2.02
16,CC(=O)Nc1ccc(NC(=O)c2ccc(Br)o2)cc1,0.843
17,COc1ccc(C2C(C(=O)c3ccc(F)cc3)=C(O)C(=O)N2CCCN(C)C)cc1 (stereo not shown),-1.17
18,NS(=O)(=O)c1ccc(NC(=O)c2ccc(-c3ccc(Cl)c(C(F)(F)F)c3)o2)cc1,-3.43
19,CCO/C(O)=C1\C(C)=Nc2ncnn2C1c1cn(-c2ccccc2)nc1-c1cccs1 (stereo not shown),-0.125
20,COc1cc(-c2ccccc2O)ncn1,-1.5
21,CCCCNC(=O)C1COc2ccccc2O1 (stereo not shown),0.162
22,CC1=C(CCN2CCCC(CO)C2)C(C)(C)CCC1 (stereo not shown),-5.31
23,COc1ccc(CN2CCN(Cc3ccccc3Cl)CC2)c(OC)c1OC,-2.15
24,Oc1nc2c(s1)C(c1ccc(F)cc1)C1C3CCC(C3)C1S2 (stereo not shown),-3.52
25,CCOC(=O)CC(C)(O)c1ccccc1 (stereo not shown),-1.74
26,COC(=O)C1=CN(Cc2ccccc2)C=C(C(=O)OC)C1c1ccc(Cl)c(Cl)c1,-2.87

row,Compound,% Inhibition @ 10 uM [%]
1,CCCCNC(=O)c1c2c(nn1C)-c1ccccc1SC2,-13.7
2,O=C(CCc1nnc2ccc(N3CCCC3)nn12)N1CCN(C(=O)c2ccco2)CC1,-3.13
3,O=C1/C(=C/c2c[nH]nc2-c2ccccc2)Sc2ccccc21,-1.84
4,COc1ccc(C2NC(=O)NC3=C2C(=O)CCC3)cc1 (stereo not shown),4.61
5,COCCn1c(CCC(=O)O)ccc1-c1ccccc1,0.558
6,O=C(NCc1ccco1)C1CCCN1c1nnc(N2CCCC2=O)s1 (stereo not shown),3.87
7,COc1ccc(CNCC(O)c2nnn(C)n2)cc1OC (stereo not shown),1.11
8,CC(=O)Nc1c(O)cc(Br)c2nonc12,0.708
9,CCOC(=O)N1CCC(NC(=O)Cn2ncc3ccsc3c2=O)CC1,-8.42
10,CC(C)(C)OC(=O)N1CCC(c2cc(O)n3ncc(C(=O)NCc4ccc(Cl)cc4)c3n2)CC1,2.39
11,CN(Cc1ccccc1)C(=O)c1cc(-c2ccccc2O)on1,-1.84
12,OCCCN1CCN(C(c2cccc(Cl)c2)c2ccccc2Cl)CC1 (stereo not shown),12.8
13,CCCCNC(=O)OC(C)CNC(=O)OC (stereo not shown),-2.98
14,COc1ccc(Nc2nc3ccccc3c(=O)s2)cc1,17.9
15,Cc1ccc2c(Cl)c(C(=O)Nc3cccnc3)sc2c1,2.68
16,O=C(CCn1cccc1)NCc1ccc2c(c1)OCO2,-0.933
17,Cc1c(C(C)(C)C)s/c(=N/C(=O)c2ccccc2O)n1C,3.43
18,Oc1c2c(nc3c(-c4ccccc4)c(Cc4ccccc4)nn13)CCC2,-3.44
19,CCOC(=O)CP(=O)(CC)OCC (stereo not shown),-0.274
20,Cc1cc(C)n2nc(Cc3ccccc3)c(-c3ccc(Cl)cc3)c2n1,1.27
21,O=C(COc1ccccc1F)Nc1ccc2c(c1)CCC2,-15.9
22,O=C1c2cccc3cccc(c23)C(=O)N1CCC(=O)N1CCCc2ccccc21,-2.8
23,Cc1[nH]c2ccccc2c1CCNC(=S)NC(C)(C)C,-0.431
24,O=C(Nc1ccon1)c1ccc(S(=O)(=O)N2CCCC2)cc1,0.316
25,O=C(O)CCN1C(=O)NC2NC(=O)NC21 (stereo not shown),-1.93
26,Cc1nn(C)cc1CNC(=O)c1cc2nc(-c3ccc(Cl)s3)cc(C(F)(F)F)n2n1,-2.77

row,Compound,% Inhibition @ 10 uM [%]
1,Cc1cc(C)c(Cn2c3ccccc3c3cnn(CC(=O)O)c(=O)c32)c(C)c1,4.79
2,Cc1nn(CC(=O)N2CCN(C)CC2)c(=O)c2nn(-c3ccccc3)c(C)c12,5.46
3,CCCn1c2ccccc2c2cnn(CC(=O)N3CCC(c4ccccc4)C3)c(=O)c21 (stereo not shown),2.82
4,Cc1sc(NC(=O)/C=C/c2ccco2)c(C(=O)O)c1C,1.26
5,CCN(CC)c1ncnc2c1cnn2C,1.42
6,C#CCOc1ccc(/C=C2/NC(=O)N(CC(=O)Nc3cccc(C)c3)C2=O)cc1,-8.01
7,Cc1ccccc1CN1CCN(c2ccccc2Cl)CC1,-0.192
8,CCOc1ccc(C2CC(c3ccc(CC)cc3)Nc3nnnn32)cc1OC (stereo not shown),-3.37
9,Cc1cccc(C(=O)Nc2cc(Cl)ccc2Cl)c1,-0.197
10,CCN1CCN(CCCNC(=O)Cn2c(=O)c3cccn3c3cccnc32)CC1,1.8
11,CCN(CC)C(=O)Sc1nc2ccccc2s1,-2.39
12,CCN(CC)C(=O)c1sc2c(c1C)c(=O)n(Cc1ccccc1)c(=O)n2CC(=O)C(C)(C)C,3.52
13,CC1=C(C(=O)OCc2ccc(C)cc2)C(c2c(F)cccc2Cl)CC(=O)N1 (stereo not shown),-2.87
14,NC(=O)/C=C/C(=O)Nc1ccccc1,-3.13
15,O=C(O)Cn1c(-c2ccccc2)nc2ccccc21,7.56
16,N#CC1(NC(=O)[C@H](Cc2c(F)cccc2F)NC(=O)c2ccc(-c3ccccc3Cl)c(Cl)c2)CCN(CC(F)(F)F)CC1,-0.207
17,Cc1cc2nc(-c3ccccc3)c(=O)n(C)c2cc1C,3.53
18,Cc1onc(-c2ccccc2)c1C(=O)N1CCC(Cc2ccccc2)CC1,-4.59
19,Cc1cc(NC(=O)COCc2cc(-c3cccs3)on2)no1,-1.04
20,O=C(COc1ccc(Cl)cc1Br)Nc1ccc(S(=O)(=O)N2CCCCC2)cc1,-1.44
21,COc1ccc(CNC(=O)CNS(=O)(=O)c2ccc(Cl)cc2)cc1,-6.37
22,CCCCN(C)CCCNC(=O)CCCn1c2ccccc2c2cnnc(O)c21,1.38
23,Cc1nc2cccnc2n1-c1ccc(CCC(=O)O)cc1,4.79
24,COc1ccc(CCNS(=O)(=O)c2cc(C)ccc2C)cc1OC,-1.59
25,Cc1cc(C)c(C#N)c(SCC(=O)Nc2nccs2)n1,1.6
26,C=CCOc1ccc(C(=O)C2=C(O)C(=O)N(CCN3CCOCC3)C2c2ccc(F)cc2)c(C)c1 (stereo not shown),-1.93

row,Compound,% Inhibition @ 10 uM [%]
1,CC1=C(C(N)=O)C(c2ccccc2OC(F)F)n2ncnc2N1 (stereo not shown),-0.403
2,CCCC1=NN(C(=O)c2ccc(OC)cc2)C(O)(C(F)(F)F)C1 (stereo not shown),12.4
3,CS(=O)(=O)N(CC(=O)Nc1ccccc1-c1ccccc1)c1ccc(F)cc1,5.31
4,COc1ccc(-c2[nH]nc3c2C(c2ccc(Br)cc2)C(C#N)=C(N)O3)cc1 (stereo not shown),5.83
5,Cc1csc(-c2coc3cc(O)cc(C)c3c2=O)n1,-1.96
6,NC(=O)c1ccccc1NC(=O)C1CCCCC1C(=O)O (stereo not shown),-0.992
7,O=C(/C=C/c1ccc(Cl)cc1)C1CC1,11.9
8,CN(C)c1cc(N)c2ccccc2n1,-2.15
9,O=C(CCn1c(=O)c2cccn2c2cccnc21)NCCc1ccccc1,2.83
10,CC(CCc1ccccc1)NC(=O)c1ccc2nc(N3CCCCC3)sc2c1 (stereo not shown),-2.37
11,Cc1ccc(-n2c(C)cc(/C=C3\C(=N)N4N=C(N5CCOCC5)SC4=NC3=O)c2C)cc1Cl,-1.66
12,CC(=O)c1cc(C(=O)Nc2ccccc2C(=O)O)oc1C,-0.171
13,Cc1csc(NC(=O)CSc2nnc(Cc3cccn3C)n2C)n1,-0.0593
14,Cc1ccc(S(=O)(=O)NCCCOC(=O)Nc2nonc2C)cc1,-3.69
15,CC(NC(=O)c1ccco1)c1nc(-c2ccc(C(C)(C)C)cc2)no1 (stereo not shown),-8.39
16,COCc1c(Br)c(C)nc(N2CCOCC2)c1C#N,0.776
17,Cc1ccccc1N1C(=O)C(Cl)=C(Nc2ccccc2)C1=O,-0.864
18,Cc1c(CNCCCc2ccccc2)c(C(=O)O)c(C)n1Cc1ccc(F)cc1Cl,-3.67
19,Cc1ccc(NC(=O)CCCOc2ccccc2C)cc1,-1.11
20,Cc1nn(CC(=O)NCc2ccccc2)c(=O)c2cccn12,-6.82
21,CCCCc1ccc(C2C(C#N)=C(N)OC(C)=C2C(=O)OCC)s1 (stereo not shown),11.2
22,Cc1ccc(C)n1-c1nnc(N2CCCC(C(=O)O)C2)s1 (stereo not shown),-5.15
23,CC1(C)CC2=Nc3nc(C(F)(F)F)nn3C(c3ccc(F)c(Br)c3)C2=C(O)C1 (stereo not shown),0.0842
24,Cc1cc(C)n(-c2nc3ccccc3n3c(CCC(=O)O)nnc23)n1,-5.98
25,CCOC(=O)c1c(NC(C)=O)sc2c1CCN(C(=O)OCC)C2,3.01
